# Results as given in PubChem BioAssay AID1362 (SRMLSC, 2008).
# The other results are listed elsewhere or left out. Shown are side measurements of this screen, not its main read-out; they come without a call. Compounds called inactive in the main read-out are mostly missing here.
# Assay: growth inhibition of WT strain, primary screen, mitochondrial fusion inhibitor project, WT and mutant strains, chemical genetic (AID 1362); further: tested in S. cerevisiae
# Settings: mitochondrial fusion phenotypic screen, at 10 µM
row,SMILES,inhibition [%]
1,CC(=O)c1ccc(NC(=S)Nc2ccc(Br)c(Cl)c2)cc1,69.2
2,Cc1cccc(NC(=S)N=Nc2c(O)[nH]c3ccccc23)c1,-9.88
3,COc1ccc(CN(C)C2c3ccccc3-c3ccccc32)cc1,7.13
4,CCOC(=O)C1CCN(CC(=O)Nc2cc(C)nn2-c2nc3ccccc3s2)CC1,8.2
5,Cc1cc(NCCC(C)C)n2nc(C)c(-c3ccccc3)c2n1,35.6
6,CC(C)(C)c1ccc(C(=O)N/N=C2\C3CN4CCN(C3)CC2(c2ccccc2)C4)cc1,95
7,COc1ccc(NC(=O)CN(c2ccc(C)cc2)S(C)(=O)=O)c(OC)c1,4.28
8,CCOC(=O)c1cc(-c2ccc3c(c2)OCO3)nc2onc(C)c12,-9.81
9,O=C(CCSc1nc(-c2ccco2)cc(C(F)(F)F)n1)N1CCN(c2ccccc2)CC1,35
10,On1c(-c2ccc(Cl)cc2)nc2ccccc21,73.3
11,CCCc1cc(-c2n[nH]c(=S)n2CC(C)C)cs1,52.4
12,CC1=NN(C(N)=S)C(=O)C1N=Nc1ccccc1C (configuration not stated),55.1
13,Cc1ccc(-n2cc(CN(C)Cc3ncc[nH]3)c(-c3cccc(C)c3)n2)cc1,40.1
14,CC(C)(C)CC(C)(C)NC(=O)CSCC(=O)Nc1ccc2ccccc2c1,57.2
15,CN1CCC2(CC1)Nc1nc(SCc3ccc(Cl)cc3)nn1C1=C2CN(C)CC1,4.66
16,O=C(CSC1=NC2(CCCCCC2)N=C1c1ccccc1)Nc1ccc2c(c1)OCCO2,24.6
17,CC(C)COC(=O)c1cccc2c1-c1ccccc1/C2=N\O,-1.4
18,Clc1nssc1=Nc1ccc(Br)cc1,67.4
19,Cc1cc(NC(=O)C2CCCCC2)nc2c1c(=O)oc1ccccc12,12.9
20,COc1ccccc1C1CN(c2ccc(F)cc2F)N=C1c1cccs1 (configuration not stated),35.8
21,CNc1oc(C)nc1S(=O)(=O)c1ccc(C)cc1,-15.8
22,COc1ccc(/C=N/NC(N)=S)cc1OC(=O)c1cccc2ccccc12,26.3
23,CC(C)c1ccccc1OCC(=O)NC1CCCc2ccccc21 (configuration not stated),-16.8

row,SMILES,inhibition [%]
1,Clc1cccc(-c2cc3nc4c(c(N5CCOCC5)n3n2)CCCC4)c1,68
2,c1ccc2c(c1)sc1nnnn12,-1.46
3,O=C(Nc1ccc(Cl)c(Cl)c1)Nc1ccc(Br)cc1F,66.1
4,Fc1ccc2c(c1)/C(=N/Nc1ccccn1)CCS2,48.2
5,Cc1ccn2cc(CSc3ccccc3)nc2c1,58.4
6,COc1ccc(OCC(O)CNCc2ccco2)cc1 (configuration not stated),-3.7
7,Cc1cccc(C(=O)NC(=S)NNC(=O)COc2ccc(Cl)cc2)c1,64
8,CC(=O)C1=C(c2cccc([N+](=O)[O-])c2)N(C(C)=O)n2c(C)nnc2S1,37.7
9,COc1cc2c(cc1NS(=O)(=O)N1CCCCC1)oc1ccccc12,54.4
10,Cc1c(Cl)cccc1NC(=S)N(Cc1cccs1)C1CCCC1,37.6
11,CCCCCOc1ccc(CSCCNC(=S)Nc2ccccc2)cc1,5
12,Cc1ccc(C(=O)NC(=S)NCC(=O)c2ccccc2)cc1,0.51
13,S=c1[nH]nc(COc2ccccc2)n1/N=C/C(Cl)=C/c1ccccc1,39.2
14,CCc1ccc(CCC(=O)Nc2ccccc2C(=O)O)o1,3.76
15,CC(C)(C)c1ccc(OCCNC(=S)Nc2ccccc2)cc1,48.2
16,Cc1cc(N2CCCCC2)n2ncc(-c3ccc(Cl)cc3)c2n1,33.6
17,Oc1ccccc1Nc1nc(NCc2ccccc2)c2ccccc2n1,68.3
18,COCCCn1c(SCC(=O)NC(C)(C)C)nnc1-c1ccccc1,-3.73
19,CC1=NN(C(N)=S)C(=O)C1N=Nc1ccc(C)cc1C (configuration not stated),59.5
20,CCCC1CC(C)(c2csc(Nc3ccc(OCC)cc3)n2)OC1=O (configuration not stated),31.7
21,CC(C)(C)c1ccc(OCc2ccc(C(=O)N/N=C3\CC4CC=CC34)cc2)cc1 (configuration not stated),42.8
22,CCCN(Cc1ccccc1)C(=S)Nc1ccc(SC(F)F)cc1,19.6
23,CCOC(=O)c1c(NC(=O)CN2CCN(C(=O)c3ccco3)CC2)sc2c1CCCC2,8.35

row,SMILES,inhibition [%]
1,NC(=S)N/N=C1/CCSc2ccc3ccccc3c21,38.3
2,CCOC(=O)c1sc(NC(=O)Nc2cccc(Cl)c2)cc1C,16
3,OCCN1CCN(CCCN2c3ccccc3Sc3ccc(Cl)cc32)CC1,87.4
4,Cc1[nH]n(C(N)=S)c(=O)c1N=Nc1ccc2ccccc2c1,59.4
5,COc1ccc(/C=N/NC(=O)c2ccoc2C)cc1COc1c(C)cccc1C,81.2
6,NC(=S)N/N=C/c1ccc(-c2ccc(Cl)c(Cl)c2)o1,60.8
7,COc1ccc(OC)c(NC(=O)COC(=O)Cc2ccc(Br)cc2)c1,11.8
8,Fc1ccccc1C1c2cccn2CCN1C(=S)Nc1cccc(Br)c1 (configuration not stated),46.1
9,CC1CCN(S(=O)(=O)c2ccc(N/N=C(/C#N)C(N)=O)cc2)CC1,-1.68
10,CCOP(=O)(OCC)c1nc(-c2cccc3ccccc23)oc1NCCc1ccc(OC)cc1,31.5
11,O=C(NCCc1ccc(Cl)cc1)c1ncn[nH]1,37.5
12,N/C(=N\OC(=O)C12CC3CC(CC(C3)C1)C2)c1ccccc1,69.6
13,CC1=[N+](C)c2ccc3ccccc3c2C1(C)C,46.8
14,O=C(OCc1cc(Cl)ccc1OC(F)F)c1cncc(Br)c1,32.9
15,CCOC(=O)c1cnc(-n2nc(C)cc2C)nc1N(CC)CC,53.5
16,O=C1C(Nc2ccccc2)=C/C(=N/S(=O)(=O)c2cccs2)c2ccccc21,93.2
17,Cc1cc2c(cc1C)CSC(c1ccccc1OC(=O)C(C)(C)C)SC2,7.47
18,Cc1ccccc1N1CCN(C(=O)c2ccc(Oc3ccc(C(F)(F)F)cn3)cc2)CC1,49.2
19,Cc1ccc(C)c(Sc2ccc(NC(=O)CCl)cc2)c1,27.8
20,O=C(/C=C/c1c[nH]c2ccccc12)c1cccc2ccccc12,24.9
21,Cc1ccc(C(C(=O)NC2CCCCC2)N(Cc2ccco2)C(=O)Cc2c[nH]c3ccccc23)o1 (configuration not stated),18.5
22,CC(=O)Nc1cccc(-c2csc(Nc3ccc(Cl)cn3)n2)c1,43.9
23,Fc1cccc(Cn2cc(C(=S)N3CCCCC3)c3ccccc32)c1,68

row,SMILES,inhibition [%]
1,O=C(CC1CC2CCC1C2)Nc1nc(-c2ccccn2)cs1 (configuration not stated),63.4
2,Cc1ccccc1-c1ccc(C(=O)Nc2cccc(F)c2)o1,28.4
3,CCn1c(C(=O)OC)cc2c1ccn2-c1ccc(F)cc1,37.1
4,COCCn1c(SCc2nnc(-c3ccccc3)o2)nc2sc3c(c2c1=O)CCC3,33.5
5,Cc1cc(C)c2c(c1)/C(=C/C(=O)c1ccc(Br)s1)C(=O)N2,70.6
6,CC1CC(N(C(=O)c2ccc(Cl)cc2)c2ccccc2)c2ccccc2N1C(=O)c1ccco1 (configuration not stated),55.2
7,O=C(COc1ccc(Cl)cc1)NCCSCc1cccc(Cl)c1,45.1
8,Cc1onc(-c2ccccc2Cl)c1C(=O)Nc1sc2c(c1C(N)=O)CCC(C)C2 (configuration not stated),8.11
9,CCOc1cccc(Oc2ncccc2C(=O)/C(C#N)=C/N(C)C)c1,21.9
10,O=C(Nc1ccc(C(O)(C(F)(F)F)C(F)(F)F)cc1)c1ccc(Cl)c([N+](=O)[O-])c1,17.8
11,CN1/C(=C\C(=O)Nc2ccc(Cl)cc2)C(C)(C)c2ccccc21,42.1
12,CC1=Nc2ccccc2/C1=C\c1sc(Nc2ccc(C)cc2)nc1O,14
13,O=[N+]([O-])c1cc(Cl)ccc1N1CCN(c2ccccc2O)CC1,48.1
14,CC1=CCC(C(=O)O)(C(=O)N/N=C/c2cccs2)C(c2ccc([N+](=O)[O-])cc2)C1 (configuration not stated),60.4
15,Cc1ccc(C)c(N2CCN(CCCNC(=O)Cn3cccc3C(=O)c3ccccc3C)CC2)c1,48
16,Cc1cccc(C)c1NC(=S)Nc1ccc(Cl)c(Cl)c1,51.1
17,O=C(OCC(=O)N1CCN(C(=O)c2ccco2)CC1)c1cn(-c2ccccc2)nc1-c1ccccc1,24.9
18,Cc1c(Cl)cccc1Nc1nc(N)nc(CSc2nc3ccccc3s2)n1,35.5
19,Clc1ccc(-c2nnc(-c3ccccc3)c(N3CCSCC3)n2)cc1,35.3
20,CC(C)(C)c1ccc(NC(=O)c2ccccc2)c([N+](=O)[O-])c1,-3.45
21,Cc1ccc(N=C(NOCc2ccc(Cl)cc2Cl)c2nonc2N)c(C)c1,-3.12
22,FC(F)(F)c1cccc(NC(=S)NCC2COc3ccccc3O2)c1 (configuration not stated),47.9
23,Clc1ccc(CSc2nnc(-c3ccncc3)o2)c(Cl)c1,2.5

row,SMILES,inhibition [%]
1,CCOC(=O)Cc1c(Sc2ccccc2)c2ccccc2n1C,47.2
2,Cc1cc(Nc2cccc(Cl)c2)nc(NCc2ccccc2)n1,97.1
3,Cc1ccccc1Cn1c(Cc2ccccc2)nc2ccccc21,69.1
4,CC(Oc1ccc(Cl)cc1Cl)C(=O)NCCCCc1ccccc1 (configuration not stated),-2.64
5,CC(C)NS(=O)(=O)c1ccc(NC(=O)C2CC3C=CC2C3)cc1 (configuration not stated),15.9
6,CN1/C(=C\C=Nc2ccc3ccccc3c2)C(C)(C)c2ccccc21,0.23
7,CCOC(=O)CNS(=O)(=O)c1cc(-c2nn(C)c(=O)c3ccccc23)ccc1C,1.59
8,CCn1ccnc1CN(C)Cc1cn(-c2ccc(C)cc2)nc1-c1cccc(C)c1,63.3
9,CC1(C)C2CC=C(/C=N/NC(=S)NCCc3ccccc3)C1C2 (configuration not stated),39.6
10,CN(C)CCCN(C(=O)COc1ccc(Cl)cc1)c1nc2ccc(F)cc2s1,33.5
11,CC(C)N(Cc1nc(-c2ccc(Cl)cc2)no1)C(=O)CCC1CCCC1,17.7
12,Cc1ccc(Nc2cc(C)nn2-c2nc(C)cc(C)n2)cc1,67.5
13,Cc1cc(Cl)n2c(nc3cc(F)c(F)cc32)c1C#N,75.6
14,O=C(COc1ccccc1[N+](=O)[O-])N/N=C/C=C/c1ccco1,-6.91
15,Cc1cccc(N=Nc2c(C)[nH]n(C(N)=S)c2=O)c1C,62.8
16,CCOC(=O)c1sc2nc(CSc3ccccc3)nc(N3CCCN(C)CC3)c2c1C,88.1
17,CC1CCN(c2ccccc2NC(=S)NC(=O)C(C)(C)C)CC1,29
18,CC(=O)N(Cc1cc2c(C)cc(C)cc2[nH]c1=O)C1CCCCC1,97.4
19,CSc1ccc(Cl)c(C(=O)NCCOc2cc(C)ccc2C(C)C)c1,9.52
20,CCCCCCCn1c2c(c(=N)c3ccccc31)CCC2,79.7
